Data reported in PubChem BioAssay AID2147 (National Center for Advancing Translational Sciences (NCATS), 2009).
Values joined by “and” are separate entries in the source; they are usually repeats but may differ in a detail not shown here. Equal entries are not always repeated. The campaign covered roughly 230,000 compounds. About 3,600 (1.6%) were called active. The inconclusive results got no clear call from the source; some entries with a clear call stand among them for comparison. Calls follow the shape of the dose curve; as a rule, active = well fitted inhibition curve with a large enough effect (not every such curve was filed as active); inconclusive = small, poorly fitted or top-dose-only effect, or another doubt; inactive = no such curve, though single readings can be large or run the other way. Where the call is inconclusive, the potency comes from a doubtful curve fit.

Target: Lysine-specific demethylase 4E (Homo sapiens) (UniProt B2RXH2)
Test: qHTS Assay for Inhibitors of Human Jumonji Domain Containing 2E (JMJD2E)
Details: JMJD2E catalytic domain, FDH-coupled NADH fluorescence (FDH is formaldehyde dehydrogenase); series mostly up to 57.1 µM; activity change, negative = inhibition: at the top concentration
Also: nearly all actives have a fitted effect of over 50% in size.
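For activity change, negative = inhibition in this document: 0% = wells with enzyme and -100% = buffer wells without enzyme.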
Potency is read from the fitted curve at half-maximal effect; tags tell the direction and shape of the fitted curve.

Chain of UniProt B2RXH2 (B2RXH2 whole entry, looked up, the tested form may be a part): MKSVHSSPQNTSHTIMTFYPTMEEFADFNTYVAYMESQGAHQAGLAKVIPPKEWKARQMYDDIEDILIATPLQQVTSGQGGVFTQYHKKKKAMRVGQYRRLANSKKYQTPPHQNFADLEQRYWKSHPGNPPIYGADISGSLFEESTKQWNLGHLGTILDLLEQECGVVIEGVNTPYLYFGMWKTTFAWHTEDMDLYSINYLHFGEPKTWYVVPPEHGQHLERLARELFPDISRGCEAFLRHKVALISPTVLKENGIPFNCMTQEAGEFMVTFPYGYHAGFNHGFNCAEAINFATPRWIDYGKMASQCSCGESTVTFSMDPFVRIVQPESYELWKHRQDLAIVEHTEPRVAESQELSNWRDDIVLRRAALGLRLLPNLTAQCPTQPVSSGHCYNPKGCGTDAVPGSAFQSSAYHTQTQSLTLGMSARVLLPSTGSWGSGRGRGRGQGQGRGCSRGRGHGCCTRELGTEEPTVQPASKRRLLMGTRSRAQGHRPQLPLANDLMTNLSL

Structure (SMILES)	Potency	activity change, negative = inhibition
COC(=O)c1cc(NC(=O)c2cc(C(C)(C)C)nn2Cc2cccc(C)c2)ccc1N1CCOCC1	inconclusive: 35.5 µM [inhibitor, single point]	
COc1ccc(OC)c2c(C)cc(N3CCCN(C)CC3)nc12	inconclusive: 31.6 µM [inhibitor, partial curve]	
COc1ccc(C(=O)Nc2cccc(/C=C/c3nc4ccccc4c(=O)[nH]3)c2)cc1	inconclusive: 31.6 µM [inhibitor, partial curve]	
COc1cccc(-n2c(N)c(-c3nc4ccccc4[nH]3)sc2=S)c1		inactive: -1.58%
O=C(OCC(=O)N1CCN(C(=O)COC(=O)c2ccncc2)CC1)c1ccncc1	inconclusive: 35.5 µM [inhibitor, single point]	
Cc1cc(C)c2c(=O)c(C#N)coc2c1		inactive: -3.1%
NC(=O)COC(=O)c1c2c(nc3ccccc13)CCCC2	inconclusive: 15.8 µM [inhibitor, single point]	
CNC(=S)N1CCN(c2c(F)cc3c(=O)c(C(=O)O)cn(C4CC4)c3c2OC)CC1C (stereo unspecified)	inconclusive: 28.2 µM [inhibitor, partial curve]	
O=C(NNC(=S)NC(=O)C12CC3CC(CC(C3)C1)C2)c1ccncc1	inconclusive: 39.8 µM [inhibitor, single point]	
CCOC(=O)c1cc(NC(=O)c2ccccc2)c(=O)oc1C(F)(F)F		inactive: -1.97%
COC(=O)/C(=C\c1cc(OC)c(OC)c(OC)c1)c1nc2ccccc2[nH]1	inconclusive: 25.1 µM [inhibitor, single point]	
Cc1cccn2c(=O)c(/C=C(\C#N)C(N)=O)c(N3CCN(Cc4ccc5c(c4)OCO5)CC3)nc12	inconclusive: 14.1 µM [inhibitor, partial curve]	
Cc1cccn2c(=O)c3cc(C(=O)N4CCN(C(=O)c5ccco5)CC4)n(C)c3nc12	inconclusive: 28.2 µM [inhibitor, partial curve]	
c1ccc(CNc2nc(NCc3ccccc3)c3ccccc3n2)cc1	inconclusive: 28.2 µM [inhibitor, partial curve]	
Clc1ccc(-c2nc3ccncc3[nH]2)cc1	inconclusive: 5.01 µM [inhibitor, single point]	
CC(C)CC(=O)OC1C(N2CCOCC2)c2c(ccc(/C=C/C(=O)N3CCOCC3)c2O)OC1(C)C (stereo unspecified)	inconclusive: 28.2 µM [inhibitor, partial curve]	
Cc1ccc2c(c1)c(C)c(C)n2CC(O)CN1CCCCC1C (stereo unspecified)	inconclusive: 39.8 µM [inhibitor, single point]	
CCOC(=O)c1c(NC(=O)Nc2ccc(Cl)cc2)sc(C)c1C		inactive: 10.1%
C=CCNc1nc(-c2ccccn2)nnc1-c1ccccc1	inconclusive: 35.5 µM [inhibitor, single point]	
Cc1cc(C)cc(OCC(=O)Nc2cccc(-c3nc4ncccc4o3)c2)c1	inconclusive: 28.2 µM [inhibitor, single point]	
Cc1ccc(C(=O)Cn2ncsc2=N)cc1	inconclusive: 35.5 µM [inhibitor, single point]	
Cc1cc(=O)[nH]c(-c2ccc(C(F)(F)F)cc2)n1		inactive: 1.67%

Structure (SMILES)	Potency	activity change, negative = inhibition
O=C1CC(=C(c2ccccc2)c2ccccc2)C(=O)N1CCCCN1CCN(c2ccccc2)CC1		inactive: -7.5%
O=c1c2cc(O)c(O)cc2oc2cc(O)c(C3OC(CO)C(O)C(O)C3O)c(O)c12 (stereo unspecified)	inconclusive: 35.5 µM [inhibitor, partial curve]	
COc1ccc(-c2nc3ccc(C(=O)NCC(OC)OC)cc3nc2-c2ccc(OC)cc2)cc1	inconclusive: 31.6 µM [inhibitor, partial curve]	
N#Cc1c(NC(=O)/C=C/c2ccco2)sc2c1CCCC2	inconclusive: 20 µM [inhibitor, single point]	
Cc1ccccc1C(=O)Oc1ccc(Sc2ccc(O)cc2)cc1		inactive: -2.02%
Nc1cccc2c1nnn2C1OC(CO)C(O)C(O)C1O (stereo unspecified)	inconclusive: 35.5 µM [inhibitor, single point]	
Nc1ccccc1Nc1cc(-c2ccccc2)nn1-c1cccc(Cl)c1	inconclusive: 39.8 µM [inhibitor, single point]	
O=C(OCC(=O)N1CCc2ccccc2C1)c1cccc([N+](=O)[O-])c1		inactive: 9.47%
COc1cccc(-c2cc(-c3cccnc3)c(C#N)c(N)n2)c1	inconclusive: 25.1 µM [inhibitor, partial curve]	
O=C(NCCN1CCOCC1)c1ccc(=O)oc1	inconclusive: 28.2 µM [inhibitor, partial curve]	
CCOC(=O)Cn1c(=O)cnc2ccccc21	inconclusive: 35.5 µM [inhibitor, partial curve]	
CCCn1ncc(CN2CCCC(C(=O)c3cccc(OC(C)C)c3)C2)c1C (stereo unspecified)	inconclusive: 31.6 µM [inhibitor, single point]	
COc1ccc(Cn2nnnc2CN(Cc2cc3cccc(C)c3[nH]c2=O)C2CCCC2)cc1	inconclusive: 28.2 µM [inhibitor, single point]	
O=C(NCCc1ccccc1)c1ccccc1NC(=O)C1CCCCC1C(=O)O (stereo unspecified)	inconclusive: 28.2 µM [inhibitor, single point]	
CC(C)(C)c1ccc(C(=O)NCC(=O)OCC(=O)c2ccc3c(c2)-c2ccccc2C3)cc1	inconclusive: 5.62 µM [inhibitor, partial curve, poor fit]	
CCOc1ccc(N(Cc2cc3ccc(C)cc3[nH]c2=O)C(=O)COC)cc1	inconclusive: 39.8 µM [inhibitor, single point]	
CC(=O)Oc1ccc(NC(=O)Cc2ccccc2)c(C(=O)O)c1	inconclusive: 14.1 µM [inhibitor, partial curve]	
Cc1ccc(N=C2NC(=O)/C(=C/c3cccnc3)S2)c(C)c1		inactive: -10.3%
Cc1ccc(-c2cc(-c3ccc(Cl)cc3)c(C#N)c(N)n2)o1	inconclusive: 25.1 µM [inhibitor, partial curve]	
O=C(Nc1ccc(O)cc1)c1cc(S(=O)(=O)N2CCCC2)ccc1Cl	inconclusive: 35.5 µM [inhibitor, single point]	
CSc1nnc(-c2cc(C)on2)n1-c1ccccc1		inactive: 0.692%
COc1ccc(S(=O)(=O)N2CCOCC2)cc1NC(=O)CO/N=C/c1ccccc1OC(F)F	inconclusive: 39.8 µM [inhibitor, single point]	

Structure (SMILES)	Potency	activity change, negative = inhibition
Nc1nc(N)nc(-c2ccccn2)n1	inconclusive: 3.16 µM [inhibitor, single point]	
CC(=O)OC1CC2C(C)(C)C(O)CC[C@@]2(C)C2CC[C@@]3(C)C(c4ccoc4)OC(=O)C4O[C@@]43[C@]12C (stereo partly specified)		inactive: -9.46%
COC(=O)c1ccc2c(=O)n(CCCCCC(=O)NCc3ccccn3)c(=O)[nH]c2c1	inconclusive: 6.31 µM [inhibitor, single point]	
COc1ccc(-c2ccc(OC)c([C@H]3[C@H]4C=CC[C@@H](C)[C@@H]4C(=O)N3Cc3ccccc3)c2)cc1C	inconclusive: 39.8 µM [inhibitor, single point]	
CCN1C(=O)/C(=C2\C=Cc3ccccc3N2CC)SC1=S		inactive: 4.91%
c1cnc2ccc3ncccc3c2c1	active: 17.8 µM	
CC(Oc1ccccc1)C(=O)Nc1nc2c(s1)C(=O)CC(C)(C)C2 (stereo unspecified)	inconclusive: 39.8 µM [inhibitor, single point]	
O=C1c2ccccc2C(=O)c2c1ccc(O)c2O	active: 28.2 µM and active: 14.1 µM	
O=C(Nc1nnc(C2CC2)s1)c1cc(-c2ccccc2)nn1-c1ccccc1	inconclusive: 28.2 µM [inhibitor, single point]	
COc1cccc(/C=N/Nc2nc(Nc3ccc([N+](=O)[O-])cc3)nc(N3CCCC3)n2)c1O	inconclusive: 25.1 µM [inhibitor, partial curve]	
CCC(NC(=O)Nc1nnc(C(F)(F)F)s1)(C(F)(F)F)C(F)(F)F		inactive: 10.1%
Nc1ccccc1C(=O)N(Cc1ccccc1)Cc1ccccc1	inconclusive: 31.6 µM [inhibitor, single point]	
CCOC(=O)N1CCN(C(=O)c2cn(CC(C)C)c(=O)c3c2c2ccccc2n3C)CC1	inconclusive: 31.6 µM [inhibitor, partial curve]	
CCOC(=O)c1sc(NC(=O)c2cc(-c3cccc(O)c3)on2)c(C(=O)OCC)c1C	inconclusive: 14.1 µM [inhibitor, partial curve]	
CC(=O)N[C@@H](Cc1c[nH]c2ccccc12)C(=O)OCC(=O)NCc1ccc2c(c1)OCO2		inactive: 6.49%
Cc1cc(=O)oc2cc(NC(=S)NCc3cccnc3)ccc12	inconclusive: 31.6 µM [inhibitor, partial curve]	
COc1ccc(-c2ccc(C#N)c(OC(=O)c3c(Cl)cccc3Cl)n2)cc1	inconclusive: 28.2 µM [inhibitor, partial curve]	
COc1cc2c(cc1OC)-c1cc(Nc3ccc4c(c3)OCCO4)nc(=O)n1CC2	inconclusive: 22.4 µM [inhibitor, partial curve]	
COP(=O)(OC)c1nc(-c2ccccc2)oc1N1CCOCC1	inconclusive: 31.6 µM [inhibitor, partial curve]	
Cc1c(N=C2C=CC(=O)c3ccccc32)c(=O)n(-c2ccccc2)n1C	inconclusive: 20 µM [inhibitor, single point]	
Cc1ccc(OCC(=O)N2CCOCC2)c([N+](=O)[O-])n1		inactive: 1.51%
CCOC(=O)c1c(C)[nH]c(C)c1C(=O)CSc1nc2ccccc2c(=O)n1-c1ccc(Cl)cc1	inconclusive: 39.8 µM [inhibitor, single point]	
